# Measurements as given in PMC6919601, “Identification of Plasmodium dipeptidyl aminopeptidase allosteric inhibitors by high throughput screening” (PLoS ONE, 2019).
# About 230 (0.21%) of roughly 110,000 compounds showed an effect of 50% or more. This is one part of the list.
# Target: DPAP1 (Plasmodium falciparum, UniProt Q8IIJ9)
# Experiment: primary screen, percent inhibition; read by cleavage of a fluorogenic dipeptide substrate; higher = more effect of the substance
# Parameters: species or system P. falciparum D10 trophozoite lysates; single well
# 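Also: 30 min substrate incubation versus DMSO and 10 µM JCP410 controls.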
# Chain of DPAP1 (Q8IIJ9 whole entry, looked up): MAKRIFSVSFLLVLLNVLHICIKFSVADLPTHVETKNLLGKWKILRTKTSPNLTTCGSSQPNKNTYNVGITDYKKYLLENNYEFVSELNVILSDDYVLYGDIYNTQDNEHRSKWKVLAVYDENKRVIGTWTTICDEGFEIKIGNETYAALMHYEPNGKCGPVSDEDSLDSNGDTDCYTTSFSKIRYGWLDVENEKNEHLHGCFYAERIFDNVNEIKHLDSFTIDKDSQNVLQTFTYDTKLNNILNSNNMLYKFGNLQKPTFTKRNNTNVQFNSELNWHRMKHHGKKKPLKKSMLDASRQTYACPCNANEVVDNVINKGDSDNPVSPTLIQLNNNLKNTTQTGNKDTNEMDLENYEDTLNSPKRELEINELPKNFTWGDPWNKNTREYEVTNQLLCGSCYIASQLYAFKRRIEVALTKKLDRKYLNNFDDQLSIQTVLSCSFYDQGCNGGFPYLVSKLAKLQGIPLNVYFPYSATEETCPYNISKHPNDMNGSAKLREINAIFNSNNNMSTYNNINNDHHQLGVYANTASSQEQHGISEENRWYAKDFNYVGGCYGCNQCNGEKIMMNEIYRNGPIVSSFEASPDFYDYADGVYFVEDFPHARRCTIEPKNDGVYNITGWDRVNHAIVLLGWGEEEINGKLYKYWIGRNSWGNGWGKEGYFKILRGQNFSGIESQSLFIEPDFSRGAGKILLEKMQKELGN
row,SMILES,% Inhibition @ 10 uM
1,FC(F)(F)c1nc(NCc2cccnc2)nc2c1CCCCC2,-5.67%
2,COC(=O)c1conc1-c1cccs1,-2.48%
3,COc1ccccc1CN1C(=O)CN(C2CCCCC2)C(=O)C1c1ccc(OC(C)C)c(OC)c1 (stereo not drawn),2.9%
4,Cc1ccc(CNC(=O)Cc2c(C)c3ccc(O)c(C)c3oc2=O)cc1,-2.57%
5,CCO/C(O)=C1/C(C)=Nc2ncnn2C1c1cccc(OC)c1OC (stereo not drawn),-5.19%
6,O=C(/C=C/c1ccccc1)NCCOC(=O)Nc1ccccc1,-1.96%
7,CCSc1nc(O)c(CC)c(=O)n1-c1ccccc1,-0.833%
8,COc1ccc(CC(=O)Nc2c(C)cccc2C)cc1,-2.03%
9,Cc1ccc(-c2ccc(S(=O)(=O)NCC3CCCO3)cc2)cc1 (stereo not drawn),-7.83%
10,COCCCNC(=O)c1cc(Sc2ccc(C)cc2)nc2ccccc12,-2.9%
11,CS(=O)(=O)N(CC(=O)Nc1cccc(Br)c1)Cc1ccccc1,3.57%
12,COc1cc(N)c2nc(OCc3cccc(Cl)c3)ccc2c1,1.52%
13,COc1cccc2c1OC1(C)CC2C(S(=O)(=O)c2ccc(Cl)cc2)C(=O)N1C (stereo not drawn),-2.45%
14,Cc1ccc(S(=O)(=O)N(CC(=O)N2CCCCC2)C2CCCCC2)cc1,-5.58%
15,CCc1ccc(CNC(=O)c2ccc3c(c2)ncn3C2CCCC2)cc1,-6.88%
16,CCNc1c(NC(=O)c2ccc(OCC)c(OCC)c2)c(=O)oc2ccccc12,-2.23%
17,COc1ccc(-c2nnc(SCC(=O)NC(C)c3ccccc3)o2)cc1 (stereo not drawn),3.94%
18,CCc1ccccc1NC(=O)c1ccc([N+](=O)[O-])cc1,-6.82%
19,CCOc1ccccc1/C=C1\N=C(c2ccc(C)cc2)OC1=O,0.434%
20,O=C(NCCCN1CCC(Cc2ccccc2)CC1)C1CCC(=O)N1Cc1ccccc1Cl (stereo not drawn),3.24%
21,O=C(Cn1nc(-c2ccccc2)ccc1=O)N1CCC2(CC1)OCCO2,-4.83%
22,COC(=O)/C(C#N)=C\c1ccc(OC)cc1,1.83%
23,Cc1nc(Nc2ccc(S(N)(=O)=O)cc2)oc1C,5.04%
24,COc1ccc(Cc2nnc(NC(=O)Cc3ccc(C)cc3)s2)cc1,-5.08%
25,CCC1CCCN1Cn1cnc2c3cc(C)ccc3nc-2c1O (stereo not drawn),4.8%
26,Oc1ccc(-c2cnc3ccccc3n2)cc1,3.58%

row,SMILES,% Inhibition @ 10 uM
1,CC[N+]1=C(/C=C/N(C)C)c2cccc3cccc1c23,1.67%
2,Cc1cc(O)c(NC(=O)COc2ccccc2)cc1C,-9.56%
3,Cc1cc(=O)n2nc(N3CCCC3C(=O)NCCCc3ccccc3)sc2n1 (stereo not drawn),-2%
4,COc1ccc(C(=O)c2sc(Nc3ccccc3F)c(C#N)c2N)cc1,-4.76%
5,Cc1cccc(C(=O)NCc2nnc(S)n2-c2cccc(C(F)(F)F)c2)c1,3.34%
6,Cc1nc(Nc2nc(O)c3c(n2)CCC3)nc2ccccc12,2.36%
7,CCCOC(=O)c1ccc(NC(=O)c2ccc(Br)cc2)cc1,-3.04%
8,O=C(CSc1nc2ccc(NC(=O)c3ccccc3C(=O)O)cc2s1)NCc1ccccc1,0.385%
9,CC(=O)C12CC3CC(C1)CC(C(C)=O)(C3)C2,-5.32%
10,CCc1c(C)nc2c(C#N)c(C)nn2c1O,4.74%
11,Cc1nn(CCCC(=O)NC(C)CCc2ccccc2)c(=O)c2nccn12 (stereo not drawn),-1.6%
12,COc1ccccc1CN(C1CCN(C)CC1)S(=O)(=O)c1cc(-c2cc(C)no2)ccc1C,-1.05%
13,C=CCOc1ncc2c(c1C#N)N(Cc1ccccc1)CC2,-1.52%
14,Cc1ccc(-n2nc3c(=O)n(CCCC(=O)NC(C)CCc4ccccc4)nc(C)c3c2C)cc1 (stereo not drawn),-5.54%
15,CN(C)CC1CSCCC1(O)c1cccc(Cl)c1 (stereo not drawn),-4.54%
16,COC(=O)c1cn(C(=O)c2ccc(OC)c(OC)c2)c2ccccc12,-6.44%
17,CC1=C(C(=O)NCCCN2CCOCC2)C2(CCCCCC2)OC1=O,2.99%
18,COc1ccc(S(=O)(=O)c2c(C(=O)c3ccc(C)cc3)cnc3cc4c(cc23)OCO4)cc1,2.68%
19,O=C(CCC1CCCC1)Nc1ccc2c(c1)OCCO2,-4.05%
20,C=CCOc1ccccc1CN1CCC(O)CC1,-3.57%
21,N#CCNC(=O)[C@@H](Cc1ccccc1C(F)(F)F)NC(=O)OCc1ccccc1,-4.82%
22,N#C/C(=C\c1coc2ccccc2c1=O)c1nc2ccccc2[nH]1,-2.19%
23,CCCOc1ccccc1/N=C(\N)Nc1nc(C)cc(C)n1,-3.03%
24,O=C(O)c1cccc(NC(=O)c2cccnc2C(=O)O)c1,-3.85%
25,CCc1ccc(C2C(C(=O)c3ccc4c(c3)CC(C)O4)=C(O)C(=O)N2CC2CCCO2)cc1 (stereo not drawn),1.92%
